In the supplement of paper PMC10126150:
Sequences with one replicate were seen in a single cluster, so their values are uncertain.
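Note: ATP exposure 15 min at 22 °C before imaging.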

Each sequence was assayed on ATP (assay: switch fluorescence ratio, 500 uM ATP over buffer (Cy3 cluster intensity, sum of 5 cycles each) (fold (ratio)); higher = stronger signal-on switching upon ATP binding; sequences stand for … in TCGTCGGCAGCGTCAGATGTGTATAAGAGACAGTTTTTTTTTTTTTTTTTTTTTTTTT…TC). Conditions: aptamer strand: ATP DNA aptamer (quencher-CACCTGGGGGAGTATTGCGGAGGAAGG + anchor), 100 nM annealed; ATP concentration: 500 uM; one replicate.
Method in brief: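 Cy3-labelled switching-strand clusters on a modified Illumina MiSeq flow-cell were annealed to 100 nM quencher-labelled ATP aptamer, imaged in selection buffer, then imaged after 15 min with 500 uM ATP at 22 °C. Five buffer/ATP cycles ran, with NaOH stripping and re-annealing between them. The fluorescence ratio is summed target-cycle over summed buffer-cycle Cy3 intensity per cluster, averaged per switch-domain sequence. Clusters outside 100-1000 RFU were excluded.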
With AATAGGGAAT the switch fluorescence ratio was 0.981. AATAGTAAAA showed a switch fluorescence ratio of 0.99. Work on AATAGTATTG yielded a switch fluorescence ratio of 0.954. AATATAAACT was tested, and the switch fluorescence ratio was 1.05. With AATATAGAGG the switch fluorescence ratio was 0.974. Sequence AATATAGGGA has a switch fluorescence ratio of 0.946. AATATAGTTA was tested, and the switch fluorescence ratio was 0.997. AATATGCGTG gave a switch fluorescence ratio of 0.956. AATATGGAAG gave a switch fluorescence ratio of 1.01. For AATATGGCCC, the switch fluorescence ratio was 1.12. For AATATGGCTG, the switch fluorescence ratio was 0.962. Sequence AATATGGTTG has a switch fluorescence ratio of 1.03. AATATTACCA gave a switch fluorescence ratio of 1.04. Work on AATATTAGTG yielded a switch fluorescence ratio of 0.95. AATATTAGTT gave a switch fluorescence ratio of 0.983. In the case of AATATTATTG, the switch fluorescence ratio is reported as 0.982. AATATTCCTA showed a switch fluorescence ratio of 1.01. Sequence AATCAAGC has a switch fluorescence ratio of 1.04. AATCAAGGGT showed a switch fluorescence ratio of 0.97. With AATCAATCTG the switch fluorescence ratio was 0.976. In the case of AATCACTCGC, the switch fluorescence ratio is reported as 1.02. In the case of AATCAGGAT, the switch fluorescence ratio is reported as 0.978. AATCAGGATA showed a switch fluorescence ratio of 1.02. AATCAGGCTC gave a switch fluorescence ratio of 1.04. For AATCAGGCTT, the switch fluorescence ratio was 0.994. With AATCAGTGTT the switch fluorescence ratio was 1.04. AATCAGTT showed a switch fluorescence ratio of 1.01. AATCATAGGA was tested, and the switch fluorescence ratio was 0.963. Work on AATCCATCAG yielded a switch fluorescence ratio of 1.02. With AATCCCGACC the switch fluorescence ratio was 1.29. Sequence AATCCGAGGT has a switch fluorescence ratio of 0.977. Sequence AATCCGATAG has a switch fluorescence ratio of 1.1. AATCCGGTA showed a switch fluorescence ratio of 1.05. With AATCCTCCGT the switch fluorescence ratio was 3.89. AATCGCAGGG showed a switch fluorescence ratio of 0.995. AATCGCATCC gave a switch fluorescence ratio of 1.33. Work on AATCGCTGAG yielded a switch fluorescence ratio of 1.04. AATCGCTTGC showed a switch fluorescence ratio of 1.08. Sequence AATCGGTCTC has a switch fluorescence ratio of 1.01. AATCGTATGT was tested, and the switch fluorescence ratio was 0.997. AATCGTCGCG was tested, and the switch fluorescence ratio was 1. AATCGTTACC gave a switch fluorescence ratio of 1.08. In the case of AATCGTTACG, the switch fluorescence ratio is reported as 1.06. Sequence AATCTCTCAT has a switch fluorescence ratio of 1.02. AATCTCTGGA showed a switch fluorescence ratio of 0.998. In the case of AATCTCTTGC, the switch fluorescence ratio is reported as 1.01. In the case of AATCTGATTA, the switch fluorescence ratio is reported as 1. With AATCTTACCA the switch fluorescence ratio was 1. Sequence AATCTTAGGA has a switch fluorescence ratio of 0.982. In the case of AATCTTGG, the switch fluorescence ratio is reported as 0.986. With AATGAAGTAT the switch fluorescence ratio was 0.966. For AATGACAAGG, the switch fluorescence ratio was 1.01. In the case of AATGAGATGA, the switch fluorescence ratio is reported as 0.922. Sequence AATGAGGAAT has a switch fluorescence ratio of 0.947. Work on AATGAGGTTC yielded a switch fluorescence ratio of 0.992. For AATGAGTACT, the switch fluorescence ratio was 1.06. AATGAGTCAC gave a switch fluorescence ratio of 1. AATGATAGGT gave a switch fluorescence ratio of 1.03. In the case of AATGATATAT, the switch fluorescence ratio is reported as 0.982. AATGATGTAT gave a switch fluorescence ratio of 1.02. Sequence AATGATTTGA has a switch fluorescence ratio of 0.997. Sequence AATGCAAACG has a switch fluorescence ratio of 1.07. AATGCAATCA gave a switch fluorescence ratio of 0.998. AATGCACCTT gave a switch fluorescence ratio of 1.14. Sequence AATGCAGCAC has a switch fluorescence ratio of 1.27. Work on AATGCGGCCG yielded a switch fluorescence ratio of 0.999. Sequence AATGCGGGTA has a switch fluorescence ratio of 0.973. Work on AATGCGGTAG yielded a switch fluorescence ratio of 0.972. AATGCGTAGC was tested, and the switch fluorescence ratio was 0.924. AATGGAAGTC was tested, and the switch fluorescence ratio was 0.972. AATGGAGTTC was tested, and the switch fluorescence ratio was 0.994. AATGGATAGA was tested, and the switch fluorescence ratio was 0.945. Work on AATGGCCCGG yielded a switch fluorescence ratio of 0.997. AATGGGAGTC gave a switch fluorescence ratio of 1. AATGGGCAGG showed a switch fluorescence ratio of 1.07. In the case of AATGGGCGC, the switch fluorescence ratio is reported as 0.964. In the case of AATGGTGTCA, the switch fluorescence ratio is reported as 0.988. AATGTACGAA was tested, and the switch fluorescence ratio was 1.12. AATGTAGCCA showed a switch fluorescence ratio of 0.998. AATGTCATCG showed a switch fluorescence ratio of 1.09. With AATGTCATGG the switch fluorescence ratio was 1.02. For AATGTCCGTA, the switch fluorescence ratio was 1.09. AATGTCCTAG showed a switch fluorescence ratio of 1.02. With AATGTGATTG the switch fluorescence ratio was 1.01. AATGTGCGGA showed a switch fluorescence ratio of 1.02. For AATGTGTGTC, the switch fluorescence ratio was 0.995. AATGTTCCGC showed a switch fluorescence ratio of 1.42. With AATGTTGTAC the switch fluorescence ratio was 1.04. Sequence AATGTTTGGA has a switch fluorescence ratio of 1.01. With AATTAAAAA the switch fluorescence ratio was 0.999. AATTAACCT showed a switch fluorescence ratio of 2.06. AATTAAGTTG gave a switch fluorescence ratio of 0.984. AATTACTAGA was tested, and the switch fluorescence ratio was 1.02. With AATTAGCGGA the switch fluorescence ratio was 1.01. AATTATCCGA was tested, and the switch fluorescence ratio was 0.989. AATTATTAGC was tested, and the switch fluorescence ratio was 1.02. With AATTATTCTC the switch fluorescence ratio was 0.983. AATTCAAACT was tested, and the switch fluorescence ratio was 0.982. Work on AATTCATCTA yielded a switch fluorescence ratio of 1.02. AATTCCCCCC gave a switch fluorescence ratio of 1.07. AATTCCGGGC showed a switch fluorescence ratio of 1.07. For AATTCCTGTC, the switch fluorescence ratio was 0.887. Sequence AATTCCTTAT has a switch fluorescence ratio of 1.14. Work on AATTCGATC yielded a switch fluorescence ratio of 0.998. AATTCGATT gave a switch fluorescence ratio of 1.01. AATTCGTATT showed a switch fluorescence ratio of 0.964. AATTCGTCCG was tested, and the switch fluorescence ratio was 1.11. AATTCGTGTG gave a switch fluorescence ratio of 0.973. AATTCTAAAA was tested, and the switch fluorescence ratio was 0.974. AATTCTCAGA gave a switch fluorescence ratio of 0.976. Sequence AATTCTGGGG has a switch fluorescence ratio of 1. For AATTGAATTT, the switch fluorescence ratio was 1.01. Sequence AATTGATACA has a switch fluorescence ratio of 0.997. AATTGCTCCA was tested, and the switch fluorescence ratio was 1.03. AATTGCTGCG was tested, and the switch fluorescence ratio was 1.01. AATTGGACGC was tested, and the switch fluorescence ratio was 1. Work on AATTGGAGAT yielded a switch fluorescence ratio of 1.03. Sequence AATTGGGATA has a switch fluorescence ratio of 1.01. With AATTGGGTT the switch fluorescence ratio was 0.959. In the case of AATTGGTGC, the switch fluorescence ratio is reported as 1.07. In the case of AATTGTCGGA, the switch fluorescence ratio is reported as 0.99. In the case of AATTGTGATT, the switch fluorescence ratio is reported as 0.98. AATTGTTGGA was tested, and the switch fluorescence ratio was 0.993. With AATTTACACG the switch fluorescence ratio was 1.1. Sequence AATTTAGAAT has a switch fluorescence ratio of 1.03. Work on AATTTATTCT yielded a switch fluorescence ratio of 1.01. Sequence AATTTCACTC has a switch fluorescence ratio of 1.06. Sequence AATTTCTAAG has a switch fluorescence ratio of 0.947. Sequence AATTTTCGGT has a switch fluorescence ratio of 0.99. AATTTTGCTC gave a switch fluorescence ratio of 0.997. AATTTTGGGC gave a switch fluorescence ratio of 0.969. AATTTTGGT was tested, and the switch fluorescence ratio was 0.997. In the case of AATTTTTAA, the switch fluorescence ratio is reported as 0.981. ACAAAAGAAT gave a switch fluorescence ratio of 0.978. Work on ACAAAATCTG yielded a switch fluorescence ratio of 1.11. Work on ACAAAGGAGG yielded a switch fluorescence ratio of 1.01. ACAAAGGATC was tested, and the switch fluorescence ratio was 0.991. ACAACAATCG showed a switch fluorescence ratio of 0.996. ACAACCCGCT showed a switch fluorescence ratio of 1.13. ACAACCGCCC gave a switch fluorescence ratio of 2.2. ACAAGAGGAG showed a switch fluorescence ratio of 1.03. Work on ACAAGAGTCT yielded a switch fluorescence ratio of 1.04. ACAAGGGCGA showed a switch fluorescence ratio of 0.992. Sequence ACAAGTCCTA has a switch fluorescence ratio of 0.968. ACAAGTGCT was tested, and the switch fluorescence ratio was 0.997. ACAATAAATG gave a switch fluorescence ratio of 1.04. ACAATCGCG showed a switch fluorescence ratio of 1. With ACAATGACAC the switch fluorescence ratio was 1.1. ACAATGACCA was tested, and the switch fluorescence ratio was 1.01. For ACAATGAGAC, the switch fluorescence ratio was 1.03. For ACAATGGGAA, the switch fluorescence ratio was 1.04. ACAATGGGTG showed a switch fluorescence ratio of 1.22. ACAATTTGG showed a switch fluorescence ratio of 1.01. With ACACAAGGGT the switch fluorescence ratio was 1.04. ACACACATGG gave a switch fluorescence ratio of 1.26. In the case of ACACACGTAT, the switch fluorescence ratio is reported as 1.37. ACACAGCCCG showed a switch fluorescence ratio of 1.04. ACACAGTCT showed a switch fluorescence ratio of 0.987. Work on ACACCATGGA yielded a switch fluorescence ratio of 1.03. ACACCATGGC gave a switch fluorescence ratio of 1.04. ACACCATGTT gave a switch fluorescence ratio of 1.01. For ACACCCAATT, the switch fluorescence ratio was 1.15. In the case of ACACCGTCAT, the switch fluorescence ratio is reported as 1.11. For ACACCTAGTC, the switch fluorescence ratio was 1.12. Sequence ACACCTGGCA has a switch fluorescence ratio of 1.11. ACACGCAGCT gave a switch fluorescence ratio of 1.1. Work on ACACGGAGAT yielded a switch fluorescence ratio of 1. ACACGGCTGG was tested, and the switch fluorescence ratio was 1.02. For ACACGGGTAC, the switch fluorescence ratio was 1.28. Sequence ACACGGTTAT has a switch fluorescence ratio of 1.05. ACACGTAACG was tested, and the switch fluorescence ratio was 1.19. ACACGTGCC gave a switch fluorescence ratio of 1.02. Sequence ACACGTTGGA has a switch fluorescence ratio of 0.979. ACACTAATTG gave a switch fluorescence ratio of 0.973. ACACTGAGAG showed a switch fluorescence ratio of 1.03. ACACTGGTGA was tested, and the switch fluorescence ratio was 1.19. With ACACTTTCTG the switch fluorescence ratio was 0.991. ACAGAAGGAG gave a switch fluorescence ratio of 0.986. ACAGACGTAA was tested, and the switch fluorescence ratio was 1.17. With ACAGACTGCT the switch fluorescence ratio was 1.08. ACAGAGGCGA gave a switch fluorescence ratio of 1.02. ACAGATATGC was tested, and the switch fluorescence ratio was 0.993. Sequence ACAGCAGTTT has a switch fluorescence ratio of 0.983. ACAGCCTATT showed a switch fluorescence ratio of 1.01. ACAGCGCACG was tested, and the switch fluorescence ratio was 1.07. Work on ACAGGATTCT yielded a switch fluorescence ratio of 0.995. Work on ACAGGCAGGG yielded a switch fluorescence ratio of 0.991. Work on ACAGGCATTC yielded a switch fluorescence ratio of 1.12. Work on ACAGGCGCC yielded a switch fluorescence ratio of 1. ACAGGCGGAA gave a switch fluorescence ratio of 0.987. ACAGGCGGGA was tested, and the switch fluorescence ratio was 1.07. For ACAGGCTCAG, the switch fluorescence ratio was 1.02. ACAGGCTTTG gave a switch fluorescence ratio of 0.98. For ACAGGGAATA, the switch fluorescence ratio was 1.08. ACAGGTTCG was tested, and the switch fluorescence ratio was 1.03. Work on ACAGGTTGG yielded a switch fluorescence ratio of 1.06. ACAGGTTTG was tested, and the switch fluorescence ratio was 1.04. ACAGTCACGC showed a switch fluorescence ratio of 1.25. Sequence ACAGTCCGGA has a switch fluorescence ratio of 0.998. For ACAGTCCGGG, the switch fluorescence ratio was 1.03. ACAGTCTCTA showed a switch fluorescence ratio of 0.982.
